# In PMC4336329 (PLoS ONE, 2015):
# The whole screen tested about 310,000 compounds, of which about 2,200 (0.71%) showed an effect of 50% or more. Effects have a minus sign here. Some of the results follow.
# Target: human ether-à-go-go-related gene (hERG) potassium channel (human, UniProt Q12809)
# Assay: primary screen, population patch clamp on CHO cells stably expressing hERG
# Chain of human ether-à-go-go-related gene (hERG) potassium channel (Q12809 whole entry, looked up): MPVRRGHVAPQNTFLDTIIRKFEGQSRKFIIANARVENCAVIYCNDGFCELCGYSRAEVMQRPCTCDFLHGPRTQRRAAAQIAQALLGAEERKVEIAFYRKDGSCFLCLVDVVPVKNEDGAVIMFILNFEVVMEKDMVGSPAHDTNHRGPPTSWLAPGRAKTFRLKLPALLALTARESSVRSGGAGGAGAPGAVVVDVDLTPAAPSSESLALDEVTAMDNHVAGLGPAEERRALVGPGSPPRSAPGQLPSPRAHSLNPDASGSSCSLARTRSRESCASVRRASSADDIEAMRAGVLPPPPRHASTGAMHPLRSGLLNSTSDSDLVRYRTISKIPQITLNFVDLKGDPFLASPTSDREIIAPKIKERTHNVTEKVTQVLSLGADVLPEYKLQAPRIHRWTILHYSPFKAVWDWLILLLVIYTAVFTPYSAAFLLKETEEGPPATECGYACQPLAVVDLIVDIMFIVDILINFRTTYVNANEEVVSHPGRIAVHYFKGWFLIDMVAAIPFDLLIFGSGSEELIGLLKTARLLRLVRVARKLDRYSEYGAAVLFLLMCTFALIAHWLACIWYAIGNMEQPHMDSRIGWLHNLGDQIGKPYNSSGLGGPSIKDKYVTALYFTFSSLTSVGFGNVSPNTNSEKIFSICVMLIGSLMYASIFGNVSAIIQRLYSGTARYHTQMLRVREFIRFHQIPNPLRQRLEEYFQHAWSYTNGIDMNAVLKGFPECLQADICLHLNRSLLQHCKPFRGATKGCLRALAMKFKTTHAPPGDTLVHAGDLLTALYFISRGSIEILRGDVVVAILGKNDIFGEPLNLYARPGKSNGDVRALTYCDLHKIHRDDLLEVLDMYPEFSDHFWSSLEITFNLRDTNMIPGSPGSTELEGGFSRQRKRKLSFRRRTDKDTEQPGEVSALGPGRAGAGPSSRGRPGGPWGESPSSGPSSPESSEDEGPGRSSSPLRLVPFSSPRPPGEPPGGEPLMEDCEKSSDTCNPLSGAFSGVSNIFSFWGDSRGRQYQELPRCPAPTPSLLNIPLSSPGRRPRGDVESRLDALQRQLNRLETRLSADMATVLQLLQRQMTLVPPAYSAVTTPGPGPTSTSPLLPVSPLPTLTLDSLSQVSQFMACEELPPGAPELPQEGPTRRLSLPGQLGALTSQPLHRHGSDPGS
row,Compound,"hERG current change (%, negative = inhibition) at 1uM"
1,CCC(Sc1ncnc2c1nnn2-c1ccc(F)cc1)C(=O)OC (stereo not shown),-12.7%
2,CC(C)c1nc(SCC(=O)N2CCCCCC2)c2c(=O)n(C)c(=O)n(C)c2n1,5.76%
3,COc1ccccc1/C=C/CN1CCC(Oc2ccc(C(=O)N3CCCC3)cc2)CC1,10.1%
4,O=C(NC1CCCCC1)N1CCc2[nH]c3ccccc3c2C1,4.23%
5,Cc1ccc(C)c(N2CCN(c3ccc([N+](=O)[O-])cn3)CC2)c1,10.6%
6,O=C(NCCc1c[nH]c2ccccc12)c1ccc2nc[nH]c2c1,1.35%
7,CCOC(=O)c1cc(-c2ccccc2)sc1NC(=S)Nc1cc(C)ccn1,19.2%
8,COc1ccc(Cl)cc1Nc1nc(-c2sc(NC(=O)c3ccco3)nc2C)cs1,20%
9,Cc1nc(-c2ccc(C(=O)NCCO)cc2)cs1,15.3%
10,COc1ccccc1N(CC(=O)NC(C)(C)C)C(=O)CCC(=O)Nc1nccs1,4.31%
11,CC(C)C[C@@H]1NC(=O)[C@H](Cc2ccc(O)cc2)NC(=O)c2cc([N+](=O)[O-])cc(I)c2NCCC[C@@H](C(N)=O)NC1=O,-11.3%
12,Cc1ccc(S(=O)(=O)Nc2c(C)ccc3nsnc23)cc1,5.24%
13,CC(C)CN1CCNC(=O)C1CC(=O)N(C)CC1CCOCC1 (stereo not shown),3.82%
14,C/C(=N/NS(=O)(=O)c1ccc(Br)cc1)c1ccc(C)o1,7.12%
15,CN(C)C(CNC(=O)CNC(=O)c1ccc2ccccc2c1)c1ccccc1 (stereo not shown),5.17%
16,COc1ccc(NC(=O)Nc2cccc(C)n2)c(OC)c1,6.74%
17,Cc1ccc(/C=N/NC(=O)CNC(=O)c2ccc(S(=O)(=O)N3CCCC3)cc2)o1,0.995%
18,COc1ccc(C2=NN(C(C#N)c3ccc(OC)c(OC)c3)C(c3ccccc3)C2)cc1 (stereo not shown),12%
19,Cc1ccccc1S(=O)(=O)/N=C(/c1ccccc1)N1CCOCC1,10.5%
20,Cc1ccc(-c2nnc3ccc(SCC(=O)N4CCc5ccccc54)nn23)cc1,1.12%

row,Compound,"hERG current change (%, negative = inhibition) at 1uM"
1,COc1ccc(CCNC(=O)C(=O)NCC2CCCN2S(=O)(=O)c2ccccc2)cc1OC (stereo not shown),-0.655%
2,c1csc(-c2nnc3ccccn23)c1,2.75%
3,CCNc1nc(N)nc(-c2cc(Cl)ccc2OC)n1,10.8%
4,O=S(=O)(Nc1ccccc1OC(F)F)c1ccc(S(=O)(=O)N2CCCC2)cc1,-3.33%
5,COCCc1ncc(CN2CCCC(C(=O)Nc3cccc(-c4cccc(C)c4)c3)C2)cn1 (stereo not shown),-1.25%
6,COc1cc(OC)cc(C(=O)NCC2CCCN(Cc3cccc(C(C)=O)c3)C2)c1 (stereo not shown),-0.745%
7,Cc1cc(Nc2ccc(C)c(Br)c2)n2nc(C)nc2n1,1.5%
8,COc1ccc(OC)c(C2=NOC(C(=O)Nc3cccc(C(C)=O)c3)C2)c1 (stereo not shown),-3.07%
9,Cc1ccc(OCC(=O)Nc2ccc(NC(=O)c3ccco3)cc2)c(C)c1,13.2%
10,CCN(CC)C(=O)N1CCN(C(=O)N(CC)CC)CC1,11.7%
11,COc1ccc(-c2[nH]n(-c3ccc([N+](=O)[O-])cc3)c(=O)c2C=NCC2CCCO2)cc1 (stereo not shown),18%
12,O=C(CCc1ccccc1)Nc1ccc2c(c1)OCCO2,-7.3%
13,Cc1nnc(SCc2nc3ccccc3s2)n1N,6.13%
14,Cc1sc2nc(CSC(C)C(=O)Nc3ccc(Cl)cn3)[nH]c(=O)c2c1C (stereo not shown),6.64%
15,CCOC(=O)C1(CC2CC2)CCN(Cc2ccc3cccc(F)c3n2)CC1,-11.8%
16,CC(C)c1c(C(=O)N/N=C/c2cccs2)nnn1-c1nonc1N,17.7%
17,CC12CC3CC(C)(C1)CC(C(=O)NCc1ccco1)(C3)C2,3.95%
18,CC(O)c1c(-c2ccccc2)nn(C)c1Cl (stereo not shown),16.2%
19,COc1ccc(Cl)cc1NC(=O)CNc1ccccc1F,7.66%
20,COC1CCN(C(=O)c2ccc(OC3CCN(CCc4ccccc4)CC3)cc2)CC1,3.97%

row,Compound,"hERG current change (%, negative = inhibition) at 1uM"
1,FC(F)(F)c1cc(-c2ccc3c(c2)OCO3)nc(NCc2ccco2)n1,9.63%
2,CCc1nnc(NC(=O)C2CCCN2S(=O)(=O)c2ccc(F)cc2)s1 (stereo not shown),7.55%
3,CCCCC(CC)Cn1c(N)c(C#N)c2nc3ccccc3nc21 (stereo not shown),10.6%
4,O=C(Nc1nnc(C2CC2)s1)c1ccc(S(=O)(=O)c2ccccc2)cc1,17.8%
5,CCOc1cc(C(=S)N2CCOCC2)ccc1OS(=O)(=O)c1ccccc1,5.08%
6,COc1cccc(NC(=O)COC(=O)C2CC3CCCC(C2)C3=O)c1 (stereo not shown),11.2%
7,CC(C)OCCCNC(=S)NNC(=O)c1ccc(Cl)c(Cl)c1,2.42%
8,CN(c1ccccc1)S(=O)(=O)c1ccc(Cl)c(C(=O)Nc2nn[nH]n2)c1,30%
9,CCCCNc1nc2ccccc2nc1Cl,10.7%
10,Oc1ccc2ccccc2c1C=Nc1ccccc1,6.51%
11,Cc1cc(C)n(-c2nc3ccccc3nc2N2CCN(S(=O)(=O)c3cccc(C#N)c3)CC2)n1,11.5%
12,CCN(CC)C(=O)Cn1c(=O)n(Cc2ccccc2Cl)c2c1c(=O)n(C)c(=O)n2C,8.59%
13,Cc1ccsc1/C=N/N1CCOCC1,16.1%
14,CN(CCOc1ccccc1)C(=S)Nc1ccc(OC(F)F)cc1,-1.74%
15,Cc1ccc(Cc2cnc(N)s2)o1,9.87%
16,C=C(C)COc1ccc(-c2[nH]ncc2-c2ccccc2)c(O)c1,13.2%
17,Cc1cc(C)c(C)c(S(=O)(=O)N2CCCCC2C(=O)O)c1C (stereo not shown),5.77%
18,CCN(CC)CCN1C(=O)C(=O)/C(=C(/O)c2ccc(S(=O)(=O)N3CCOCC3)cc2)C1c1ccc(C(C)C)cc1 (stereo not shown),13.5%
